Reference: paper PMC3814334
No constants are given. Whether binding was seen depends on the method and setting. Binding seen in cells or lysates may run through a third protein. Some results given as binding are weak or reduced against the parent protein; the word gives no strength.

B1: Nup155 (protein, UniProt O75694-1 1-1391)
chain: MPSSLLGAAMPASTSAAALQEALENAGRLIDRQLQEDRMYPDLSELLMVSAPNNPTVSGMSDMDYPLQGPGLLSVPNLPEISSIRRVPLPPELVEQFGHMQCNCMMGVFPPISRAWLTIDSDIFMWNYEDGGDLAYFDGLSETILAVGLVKPKAGIFQPHVRHLLVLATPVDIVILGLSYANLQTGSGVLNDSLSGGMQLLPDPLYSLPTDNTYLLTITSTDNGRIFLAGKDGCLYEVAYQAEAGWFSQRCRKINHSKSSLSFLVPSLLQFTFSEDDPILQIAIDNSRNILYTRSEKGVIQVYDLGQDGQGMSRVASVSQNAIVSAAGNIARTIDRSVFKPIVQIAVIENSESLDCQLLAVTHAGVRLYFSTCPFRQPLARPNTLTLVHVRLPPGFSASSTVEKPSKVHRALYSKGILLMAASENEDNDILWCVNHDTFPFQKPMMETQMTAGVDGHSWALSAIDELKVDKIITPLNKDHIPITDSPVVVQQHMLPPKKFVLLSAQGSLMFHKLRPVDQLRHLLVSNVGGDGEEIERFFKLHQEDQACATCLILACSTAACDREVSAWATRAFFRYGGEAQMRFPTTLPPPSNVGPILGSPVYSSSPVPSGSPYPNPSFLGTPSHGIQPPAMSTPVCALGNPATQATNMSCVTGPEIVYSGKHNGICIYFSRIMGNIWDASLVVERIFKSGNREITAIESSVPCQLLESVLQELKGLQEFLDRNSQFAGGPLGNPNTTAKVQQRLIGFMRPENGNPQQMQQELQRKFHEAQLSEKISLQAIQQLVRKSYQALALWKLLCEHQFTIIVAELQKELQEQLKITTFKDLVIRDKELTGALIASLINCYIRDNAAVDGISLHLQDICPLLYSTDDAICSKANELLQRSRQVQNKTEKERMLRESLKEYQKISNQVDLSNVCAQYRQVRFYEGVVELSLTAAEKKDPQGLGLHFYKHGEPEEDIVGLQAFQERLNSYKCITDTLQELVNQSKAAPQSPSVPKKPGPPVLSSDPNMLSNEEAGHHFEQMLKLSQRSKDELFSIALYNWLIQVDLADKLLQVASPFLEPHLVRMAKVDQNRVRYMDLLWRYYEKNRSFSNAARVLSRLADMHSTEISLQQRLEYIARAILSAKSSTAISSIAADGEFLHELEEKMEVARIQLQIQETLQRQYSHHSSVQDAVSQLDSELMDITKLYGEFADPFKLAECKLAIIHCAGYSDPILVQTLWQDIIEKELSDSVTLSSSDRMHALSLKIVLLGKIYAGTPRFFPLDFIVQFLEQQVCTLNWDVGFVIQTMNEIGVPLPRLLEVYDQLFKSRDPFWNRMKKPLHLLDCIHVLLIRYVENPSQVLNCERRRFTNLCLDAVCGYLVELQSMSSSVAVQAITGNFKSLQAKLERLH
B2: Kap β3/IPO5 (protein, UniProt O00410-1 1-1097)
chain: MAAAAAEQQQFYLLLGNLLSPDNVVRKQAEETYENIPGQSKITFLLQAIRNTTAAEEARQMAAVLLRRLLSSAFDEVYPALPSDVQTAIKSELLMIIQMETQSSMRKKVCDIAAELARNLIDEDGNNQWPEGLKFLFDSVSSQNVGLREAALHIFWNFPGIFGNQQQHYLDVIKRMLVQCMQDQEHPSIRTLSARATAAFILANEHNVALFKHFADLLPGFLQAVNDSCYQNDDSVLKSLVEIADTVPKYLRPHLEATLQLSLKLCGDTSLNNMQRQLALEVIVTLSETAAAMLRKHTNIVAQTIPQMLAMMVDLEEDEDWANADELEDDDFDSNAVAGESALDRMACGLGGKLVLPMIKEHIMQMLQNPDWKYRHAGLMALSAIGEGCHQQMEGILNEIVNFVLLFLQDPHPRVRYAACNAVGQMATDFAPGFQKKFHEKVIAALLQTMEDQGNQRVQAHAAAALINFTEDCPKSLLIPYLDNLVKHLHSIMVLKLQELIQKGTKLVLEQVVTSIASVADTAEEKFVPYYDLFMPSLKHIVENAVQKELRLLRGKTIECISLIGLAVGKEKFMQDASDVMQLLLKTQTDFNDMEDDDPQISYMISAWARMCKILGKEFQQYLPVVMGPLMKTASIKPEVALLDTQDMENMSDDDGWEFVNLGDQQSFGIKTAGLEEKSTACQMLVCYAKELKEGFVEYTEQVVKLMVPLLKFYFHDGVRVAAAESMPLLLECARVRGPEYLTQMWHFMCDALIKAIGTEPDSDVLSEIMHSFAKCIEVMGDGCLNNEHFEELGGILKAKLEEHFKNQELRQVKRQDEDYDEQVEESLQDEDDNDVYILTKVSDILHSIFSSYKEKVLPWFEQLLPLIVNLICPHRPWPDRQWGLCIFDDVIEHCSPASFKYAEYFLRPMLQYVCDNSPEVRQAAAYGLGVMAQYGGDNYRPFCTEALPLLVRVIQSADSKTKENVNATENCISAVGKIMKFKPDCVNVEEVLPHWLSWLPLHEDKEEAVQTFNYLCDLIESNHPIVLGPNNTNLPKIFSIIAEGEMHEAIKHEDPCAKRLANVVRQVQTSGGLWTECIAQLSPEQQAAIQELLNSA
B3: Nup107 (protein, UniProt P57740-1 1-925)
chain: MDRSGFGEISSPVIREAEVTRTARKQSAQKRVLLQASQDENFGNTTPRNQVIPRTPSSFRQPFTPTSRSLLRQPDISCILGTGGKSPRLTQSSGFFGNLSMVTNLDDSNWAAAFSSQRSGLFTNTEPHSITEDVTISAVMLREDDPGEAASMSMFSDFLQSFLKHSSSTVFDLVEEYENICGSQVNILSKIVSRATPGLQKFSKTASMLWLLQQEMVTWRLLASLYRDRIQSALEEESVFAVTAVNASEKTVVEALFQRDSLVRQSQLVVDWLESIAKDEIGEFSDNIEFYAKSVYWENTLHTLKQRQLTSYVGSVRPLVTELDPDAPIRQKMPLDDLDREDEVRLLKYLFTLIRAGMTEEAQRLCKRCGQAWRAATLEGWKLYHDPNVNGGTELEPVEGNPYRRIWKISCWRMAEDELFNRYERAIYAALSGNLKQLLPVCDTWEDTVWAYFRVMVDSLVEQEIQTSVATLDETEELPREYLGANWTLEKVFEELQATDKKRVLEENQEHYHIVQKFLILGDIDGLMDEFSKWLSKSRNNLPGHLLRFMTHLILFFRTLGLQTKEEVSIEVLKTYIQLLIREKHTNLIAFYTCHLPQDLAVAQYALFLESVTEFEQRHHCLELAKEADLDVATITKTVVENIRKKDNGEFSHHDLAPALDTGTTEEDRLKIDVIDWLVFDPAQRAEALKQGNAIMRKFLASKKHEAAKEVFVKIPQDSIAEIYNQCEEQGMESPLPAEDDNAIREHLCIRAYLEAHETFNEWFKHMNSVPQKPALIPQPTFTEKVAHEHKEKKYEMDFGIWKGHLDALTADVKEKMYNVLLFVDGGWMVDVREDAKEDHERTHQMVLLRKLCLPMLCFLLHTILHSTGQYQECLQLADMVSSERHKLYLVFSKEELRKLLQKLRESSLMLLDQGLDPLGYEIQL

Key:
[1] = target: V5-tagged HCV NS4A (strain H77, residues 1638-1711) (Hepatitis C virus, strain H77) (UniProt P27958); experiment: co-IP; anti-V5 immunoprecipitation from HEK293T cells transfected with V5-tagged HCV proteins for 48 hrs; western blot for endogenous Nups and Kaps; some samples treated with Kap β3/IPO5-NLS peptides or control penetratin peptides, or transfected with cNLS-GFP, 12 hrs after transfection
[2] = target: V5-tagged HCV NS5A (strain H77, residues 1973-2416) (Hepatitis C virus, strain H77) (UniProt P27958); experiment: as above

Row | Molecule | binding [1] | binding [2]
1 | Nup62 (from UniProt P37198 1-522) | no binding | no binding
2 | Nup358 (from UniProt P49792 1-3224) | no binding | no binding
3 | Nup153 (from UniProt P49790-1 1-1475) | no binding | binds
4 | Nup214 (from UniProt P35658-1 1-2090) | no binding | no binding
5 | Nup98 (from UniProt P52948-5 1-863) | no binding | no binding
6 | B1 | no binding | binds
7 | B2 | no binding | binds
8 | B3 | no binding | binds
